About 450 (0.94%) of roughly 48,000 compounds were called active. Inconclusive means that the source gave no clear call. Such entries were picked first, then a sample of the others. Calls come from the whole dose curve; as a rule, active = well fitted inhibition curve with a large enough effect; inconclusive = small, poorly fitted or top-dose-only effect; inactive = no such curve, though single readings can be large or run the other way. Potencies beside an inconclusive call are fits to weak or partial responses and may not hold up.
assay: Primary qHTS for Identification of Small Molecule Inhibitors of Huntingtin Promoter Activity; settings: HEK293 HTT promoter firefly luciferase reporter (activity 0% = vehicle and -100% = no light), 24 h; series mostly up to 57.5 µM; note: nearly all actives have a fitted effect of over 50% in size
Procedure, shortened: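 HEK293 cells carrying firefly luciferase reporters were seeded at 2,500 per well in Opti-MEM and cultured for 24 h. They were then treated with compounds at up to 57.5 uM final for 24 h at 37 degrees C before Dual-Glo luminescence readout.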
Potency is the fitted concentration of half-maximal effect; tags give direction and shape of the fitted curve.

| SMILES | Potency |
| --- | --- |
| CCOC(=O)C1CCN(S(=O)(=O)c2csc(C(N)=O)c2)CC1 | inconclusive: 28.2 µM [inhibitor, single point] |
| Cc1ccccc1C(=O)Nc1nc(-c2nnn(-c3ccc(C(C)C)cc3)c2C)ns1 | inconclusive: 20 µM [inhibitor, partial curve, poor fit] |
| C[C@H]1O[C@@H](O[C@H]2CC[C@@]3(C)[C@H](CC[C@@H]4[C@@H]3C[C@@H](O)[C@]3(C)[C@@H](C5=CC(=O)OC5)CC[C@]43O)C2)C[C@H](O)[C@@H]1O[C@H]1C[C@H](O)[C@H](O[C@H]2C[C@H](O)[C@H](O[C@@H]3O[C@H](CO)[C@@H](O)[C@H](O)[C@H]3O)[C@@H](C)O2)[C@@H](C)O1 | inactive |
| Cc1ccc(C)n1-c1nnc(N2CCCC(C(=O)NCc3cccc(Cl)c3)C2)s1 (configuration not stated) | inconclusive: 25.1 µM [inhibitor, single point] |
| CCn1cc(S(=O)(=O)c2cccc(Cl)c2)c(=O)c2cc(F)c(N3CCN(c4ccccc4)CC3)cc21 | inconclusive: 39.8 µM [inhibitor, single point] |
| CC(C)C(=O)Nc1ccc([N+](=O)[O-])c(C(F)(F)F)c1 | inconclusive: 12.2 µM [inhibitor, full curve] |
| O=C(NCCc1ccccc1)c1cc(Sc2cccc(Cl)c2)nc2ccccc12 | inconclusive: 20 µM [inhibitor, partial curve] |
| COc1cc(OC)c(NC(=O)Cn2c(=O)oc3cc(S(=O)(=O)N4CCCC4)ccc32)cc1Cl | inconclusive: 8.91 µM [inhibitor, partial curve] |
| COc1ccc(NS(=O)(=O)c2ccc3[nH]c4c(c3c2)CCCC4)cc1Cl | inactive |
| C1=CCOCc2cc(ccc2OCCN2CCCC2)Nc2nccc(n2)-c2cccc(c2)OCC1 | inconclusive: 34.3 µM [inhibitor, single point] |
| CCOc1ccccc1NC(=O)c1cnn2c(C(F)F)cc(-c3ccccc3)nc12 | inconclusive: 31.6 µM [inhibitor, partial curve, poor fit] |
| COc1cc(C2c3c(-c4cc(C)ccc4O)n[nH]c3C(=O)N2CCCO)ccc1OCCC(C)C (configuration not stated) | inconclusive: 31.6 µM [inhibitor, single point] |
| CCOc1ccc(NC(=O)CN2CCCN(Cc3cc(C)ccc3C)S2(=O)=O)cc1 | inconclusive: 31.6 µM [inhibitor, partial curve, poor fit] |
| CCOC(=O)c1cccc(NC(=O)CCn2nc(C)c(S(=O)(=O)N3CCCCC3)c2C)c1 | inconclusive: 39.8 µM [inhibitor, partial curve, poor fit] |
| COc1ccc(NC(=O)CSc2nc3ccccc3n2Cc2cccc(OC)c2)cc1 | inconclusive: 20 µM [inhibitor, partial curve] |
| COc1ccc2c(CNCCc3ccco3)c(C(=O)O)n(Cc3ccccc3)c2c1 | inactive |
| Cc1ccc(NC(=O)c2cc(S(=O)(=O)N3CCc4ccccc43)ccc2F)cc1Cl | inconclusive: 14.1 µM [inhibitor, partial curve, poor fit] |
| COc1ccc2nc(NC(=O)c3cc(=O)c4ccccc4o3)sc2c1 | inactive |
| COc1ccc(NC(=O)Cn2c(=O)n(Cc3ccc(C(=O)NCc4ccccc4Cl)cc3)c(=O)c3ccccc32)cc1OC | inactive |

| SMILES | Potency |
| --- | --- |
| COC(=O)c1cnc(NCc2ccc(F)cc2)c2ccccc12 | inconclusive: 35.5 µM [inhibitor, single point] |
| Cc1cc(F)ccc1S(=O)(=O)Nc1ccc2c(c1)CCCN2C(=O)c1cccs1 | inconclusive: 20 µM [inhibitor, partial curve] |
| Cc1ccc(Nc2nnc(-c3ccc(C)c(S(=O)(=O)N4CCOCC4)c3)c3ccccc23)c(C)c1 | inconclusive: 22.4 µM [inhibitor, partial curve] |
| O=C1Nc2ccccc2C1(c1ccc(O)cc1)c1ccc(O)cc1 | inactive |
| CCOc1ccc(C(=O)c2cn(Cc3ccc(Cl)cc3)c3cc(OC)c(OC)cc3c2=O)cc1 | inconclusive: 25.1 µM [inhibitor, single point] |
| Cc1oc(-c2ccc(Cl)cc2)nc1CN1CCC(C(=O)NCCCN2CCN(c3cccc(Cl)c3)CC2)CC1 | inactive |
| COc1ccc(C)cc1NC(=O)NCc1ccc2c(c1)CCN2C(=O)c1ccccc1 | inconclusive: 17.8 µM [inhibitor, partial curve, poor fit] |
| COc1ccc(C(=O)NCCc2sc(-c3ccc(Cl)cc3)nc2C)c(OC)c1 | inconclusive: 35.5 µM [inhibitor, partial curve, poor fit] |
| Cc1ccc(C)c(CN2C(=O)c3ccccc3S(=O)(=O)c3ccc(C(=O)N4CCN(c5ccccn5)CC4)cc32)c1 | inconclusive: 35.5 µM [inhibitor, single point] |
| CCc1cccc(N2C(=O)N(CC(=O)NCc3cccc(OC)c3OC)c3ccccc3S2(=O)=O)c1 | inconclusive: 31.6 µM [inhibitor, partial curve] |
| COc1ccc(OC)c(NC(=O)CN(C)S(=O)(=O)c2ccc3[nH]c4c(c3c2)CCCC4)c1 | inactive |
| CCOc1ccc(C(=O)NCC(c2ccc3c(c2)OCO3)N2CCN(c3ccccc3F)CC2)cc1 (configuration not stated) | inconclusive: 28.2 µM [inhibitor, single point] |
| COc1ccc(OC)c(CCNC(=O)c2c(C)nn(-c3ccc(F)cc3)c2-n2cccc2)c1 | inconclusive: 25.1 µM [inhibitor, single point] |
| Cc1nnc(N2CCC(C(=O)NC3CCCCC3)CC2)c2nn(-c3ccc(Cl)cc3)c(C)c12 | inactive |
| O=C(NCc1ccc2c(c1)CCN2C(=O)c1ccccc1)c1cc2ccccc2[nH]1 | inconclusive: 39.8 µM [inhibitor, single point] |
| COc1ccc(CNC(=O)Nc2ccc3c(c2)N(C)C(=O)c2ccccc2S3)cc1 | inconclusive: 28.2 µM [inhibitor, partial curve, poor fit] |
| COc1ccccc1NC(=O)c1cc2ccc3cccnc3c2[nH]1 | inactive |
| COc1ccc(-c2nnc(SCc3cc(=O)c4cc(C)cc(C)c4[nH]3)n2C)cc1 | inconclusive: 14.1 µM [inhibitor, partial curve, poor fit] |
